Results reported in PubChem BioAssay (NCI).
Where “and” joins values, the source holds several entries; their conditions need not be identical. Equal values may be shown once.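 Where inhibition never reached the appropriate level, the endpoint shown equals the highest concentration tested. Otherwise, values were interpolated linearly from a five-concentration, 48-hour dose response in 96-well plates. Here, GI50 denotes the concentration required for 50% inhibition of growth. TGI: concentration producing complete growth inhibition.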 Peptide text beside a SMILES is read from it.

System: NCI-H322M lung
Assay: DTP human tumour cell line panel, 48 h

| SMILES | TGI | GI50 |
| --- | --- | --- |
| OC(COc1cccc2ccccc12)CN1CCOCC1 (stereo not given) | > 100 µM |  |
| Cc1cccc2nc3cccc(C(=O)NCCC[N+](C)(CCCNC(=O)c4cccc5nc6cccc(C)c6nc45)Cc4ccc([N+](=O)[O-])n4C)c3nc12 | > 100 µM |  |
| N#CNC(=NCCO)NCCO | > 100 µM |  |
| C[CH2][Pb]([CH2]C)([CH2]C)[O]C(=O)COC | 6.51 µM | 2.1 µM |
| O=C(NC(O)(C(F)(F)F)C(F)(F)F)c1ccccc1 | > 100 µM |  |
| OCCN(CCO)c1ccc2c(-c3ccccc3)cc(N(CCO)CCO)nc2n1 | > 100 µM |  |
| Cn1cc(-c2csc(-c3c[nH]c4ccccc34)n2)c2cnccc21 | 6.5 µM | 2.53 µM |
| NS(=O)(=O)c1cc2c(cc1Cl)NC(/C(=N/NC(=O)c1ccncc1)C1C(=O)NC(=O)NC1=O)=NS2(=O)=O | > 100 µM |  |
| Nc1nc2cc(O)ccc2n2cc3c(F)cccc3c12 | > 100 µM | 3.92 µM |
| Cc1cnc(-c2ccccc2)o1 | > 100 µM |  |
| CC(C)Oc1ccc(-c2nn([C@@H](C)c3oc4ccc(F)cc4c(=O)c3-c3cccc(F)c3)c3ncnc(N)c23)cc1F | > 100 µM | > 100 µM |
| C=C1C(O)C2C(=C(CCC3CC3)C13CC3)C(=O)C(C)(C)C2O (stereo not given) | > 100 µM | 43.5 µM |
| O=c1c2cc(I)ccc2nc(Sc2ccc([N+](=O)[O-])cc2[N+](=O)[O-])n1Cc1ccccc1 | 24.2 µM |  |
| O=[N+]([O-])c1nccn1COCCO | > 100 µM |  |
| Nc1ccccc1Nc1ccccc1C(=O)[O-].Nc1ccccc1Nc1ccccc1C(=O)[O-].[Ni+2] | > 100 µM | > 100 µM |
| CSc1cc(-c2cc3ccccc3o2)oc(=O)c1C#N | > 100 µM |  |
| COC(=O)/C=C1/SC(=Nc2ccc(F)cc2)N(CCc2c[nH]c3ccc(O)cc23)C1=O | > 100 µM | 12.2 µM |
| CCN=c1nc2sc3c(c2c(NC(=S)NCC)s1)CCN(N1CCc2c(sc4nc(=NCC)sc(NC(=S)NCC)c24)C1)C3 | > 100 µM |  |
| COc1ccc(C(=S)N(C)NC(=O)CC(=O)NN(C)C(=S)c2ccc(OC)cc2)cc1 | > 100 µM | > 100 µM |
| CNC(=S)/C(C#N)=C(\N)N1CCN(C)CC1 | > 100 µM |  |
| CCC(N)(C(=O)O)C(C)C (stereo not given) | > 100 µM |  |
| Nc1nc(N)c2ncn(CCCC(c3ccccc3)P(=O)(O)O)c2n1 (stereo not given) | > 100 µM |  |
| CCCCC(=O)OC[n+]1ccc(-c2c(COC(=O)NC(C)C)c(COC(=O)NC(C)C)c3n2CCC3)cc1 | > 100 µM |  |
| C=C(CCOC)CCC1CCCCC/C1=N\N(C)C (stereo not given) | > 100 µM |  |

| SMILES | TGI | GI50 |
| --- | --- | --- |
| CC1(C)Oc2ccccc2OC1O (stereo not given) | > 100 µM |  |
| CC(C)(C)OC(=O)NC(CSCc1ccc(C(=O)c2ccccc2)cc1)C(=O)O (stereo not given) | > 100 µM |  |
| CCSc1n/c(=C\c2ccc(N(C)C)cc2)c2nnnn12 | > 100 µM |  |
| CC(=O)c1c(Nc2cccc(F)c2)[nH]c2c(Cl)cc(Cl)c(Cl)c2c1=O | > 100 µM | 0.355 µM |
| CC1=CC2C(=O)N(c3ccccc3)C(=O)C2CC1n1[nH]c(=O)n(Cc2ccccc2)c1=O (stereo not given) | > 100 µM |  |
| N/C(=N\N=C/c1c2ccccc2c(Cl)c2ccccc12)NO | 15.2 µM and 15.3 µM | 1.27 µM |
| COc1cc(/C=C/C(=O)c2ccccc2)cc(OC)c1OC | 30.1 µM | 15.4 µM |
| Nc1nc(Cl)c(N=Nc2ccc(Cl)cc2)c(NCC2(CO)CCC(CCc3ccccc3)C2)n1 (stereo not given) | 31.1 µM |  |
| C=CCCCCNC(=O)C[C@@H]1C2=C(CC[C@H]1O[Si](C)(C)C(C)(C)C)N1C(=O)CCC/C=C\C1C2 (stereo not given in full) | 29.8 µM |  |
| CN(C)CCONC(=O)C12CC3CC(CC(C3)C1)C2 | > 100 µM |  |
| S=C(Nc1ccccc1)c1ccc(CN2CCCCC2)s1 | 97.5 µM |  |
| CN(C)c1ccc(/C=C2\C[C@H]3[C@@H]4CC=C5C[C@@H](O)CC[C@]5(C)[C@H]4CC[C@]3(C)C2=O)cc1 | 48.9 µM |  |
| S=c1[nH]nc(-c2ccccc2)n1/N=C\c1ccc(-c2ccc(Cl)cc2)o1 | > 100 µM |  |
| CC/C=C/C(CC)C/C(C)=C\[C@]1(CC)C[C@H](CC)[C@H](CC(=O)O)OO1 (stereo not given in full) | 3.24 µM |  |
| [2H]c1nc(C)nc([2H])c1-c1cc(NC[C@@H](C)c2cccc3c(C(=O)NC)ccnc23)ncn1 | > 100 µM | > 100 µM |
| Cc1nn2c(/C=N/N=C(N)N)c(-c3ccc(Cl)c([N+](=O)[O-])c3)nc2s1 | 3.91 µM | 2.15 µM |
| CN(C)CC/C(=N\Nc1ccc(Cl)cc1)c1ccccc1 | 15 µM |  |
| COc1cc2cnc3c(c2c(OC)c1OC)Cc1cc2c(cc1-3)OCO2 | 49.2 µM | 4.33 µM |
| NNC(=O)c1ccccc1Nc1nc(-c2cccs2)nc2ccc(Br)cc12 | > 100 µM |  |
| COc1ccc(/C=C2\CCC(CN3CCOCC3)C2=O)cc1 (stereo not given) | 30.9 µM |  |
| CCOC(=O)[C@H]1Nc2ccc(Cl)cc2[C@H]2CCC[C@@H]12 | > 100 µM |  |
| CC1OC(n2cc(Cl)c(=O)[nH]c2=O)C=C(OC(=O)c2ccccc2)C1=O (stereo not given) | > 100 µM |  |
| C=[CH][Sn]([CH]=C)([S]c1cccc2cccnc12)[S]c1cccc2cccnc12 | 0.416 µM | 0.184 µM |
| O=c1ncc(I)cn1C1CC(O)C(CO)O1 (stereo not given) | > 3250 µM | 1490 µM |

| SMILES | TGI | GI50 |
| --- | --- | --- |
| COC(=O)c1cnc(Cl)c([N+](=O)[O-])c1 | 28.5 µM |  |
| CC(=O)OCC1OC(Nc2ccc3nc(C)n(-c4ccccc4)c(=O)c3c2)C(OC(C)=O)C(OC(C)=O)C1OC(C)=O (stereo not given) | > 50 µM |  |
| COc1ccc2c(c1)[n+](=O)c(C(=O)CC(=O)C(=O)Nc1cccc(Cl)c1C)c(C)n2[O-] | > 100 µM |  |
| CC(=O)Nc1ccc(-c2nnc(SCC(=O)Nc3ccccc3)o2)cc1 | > 100 µM |  |
| COc1ccc(/C(Cl)=C(\CN(C)C)c2ccc(OC)c(OC)c2)cc1OC | > 100 µM |  |
| O=C1OC2C=CCC1C2 (stereo not given) | > 100 µM |  |
| Cc1[nH]n(-c2ncc(C(=O)O)c(=O)[nH]2)c(=O)c1CCO | > 100 µM |  |
| CCC(C)C(NC(=O)C(NC(=O)C(CC(N)=O)NC(=O)CN)C(C)O)C(=O)NC(C(=O)NC(C)C(=O)NC(C(=O)NC(CCC(=O)O)C(=O)NC(CC(C)C)C(=O)NC(CC(=O)O)C(=O)NC(C(=O)NC(Cc1ccc(O)cc1)C(=O)N1CCCC1C(=O)O)C(C)O)C(C)C)C(C)C (stereo not given) (H-GNTIVAVELDTYP-OH; configuration not given here) | > 50 µM |  |
| Cc1ccc(C(=O)Nc2ccc(S(=O)(=O)O)c3cc(S(=O)(=O)O)cc(S(=O)(=O)O)c23)cc1N | > 100 µM |  |
| CC1OC(O[C@H]2CC[C@]3(C)[C@H]4CC=C5[C@@H]6[C@@H](C)[C@H](C)CC[C@]6(C(=O)OC6OC(CO)C(O)C(O)C6O)CC[C@@]5(C(=O)O)[C@]4(C)CC[C@H]3C2(C)C)C(O)C(O)C1O (stereo not given in full) | > 100 µM |  |
| O=C1C(c2ccc([N+](=O)[O-])cc2)=C(Cl)C(=O)c2c(O)cccc21 | > 85.2 µM |  |
| COc1ccc(/C=C/C(=O)c2sc(NC(=S)NC(=O)c3ccc(Cl)cc3)nc2C)cc1OC | > 100 µM |  |
| c1ccc2nc(N/N=C3\CCCCC3C3CCCCC3)ccc2c1 (stereo not given) | 30 µM | 8.42 µM |
| CCCCCCCCCCCC[C@@H](O)[C@H]1CC[C@H]([C@H]2CC[C@H]([C@H](O)CC[C@H](O)CCCCCCCC3=C[C@H](C)OC3=O)O2)O1 | 5.48 µM |  |
| N#CC(C#N)=Cc1c[nH]c(=O)[nH]c1=O | > 100 µM |  |
| COc1ccc2c(c1OC)-c1c(c3ccc([N+](=O)[O-])cc3c(=O)n1CCCN)C2=O | 11.8 µM | 4.93 µM |
| O=c1oc2ccc(Cl)cc2c2ccccc12 | > 100 µM |  |
| CCCCCCCCCCCCCCCCCCOP(=O)([O-])OCC[N+](C)(C)C | 17.4 µM |  |
| COC[C@@H]1[C@H]2OC(C)(C)O[C@H]2C(=O)N1C(=O)c1ccc(OC)cc1 | > 100 µM |  |
| CC(C)N(C(C)C)[PH+]1O[PH+](N(C(C)C)C(C)C)O[PH+](N(C(C)C)C(C)C)O[PH+](N(C(C)C)C(C)C)O1.[C-]#[O+].[C-]#[O+].[C-]#[O+].[C-]#[O+].[C-]#[O+].[C-]#[O+].[C-]#[O+].[C-]#[O+].[Mo].[Mo] (stereo not given) | > 100 µM | > 100 µM |
| COc1ccc(C(=O)/C=C/c2ccc(Oc3cc(C(=O)/C=C/c4ccc(O)cc4)c(O)cc3OC)cc2)c(O)c1 | > 100 µM |  |
| COC(=O)C(Cc1ccc(OC)cc1O)NC(=O)OC(C)(C)C (stereo not given) | > 100 µM |  |
| N#CC(C/C=C/c1ccccc1)NNC(=O)c1c(Cl)c(Cl)c(Cl)c(Cl)c1-c1nc2ccc(C(=O)c3ccccc3)cc2[nH]1 (stereo not given) | > 100 µM |  |
| Cn1c(-c2ccncc2)c(-c2ccc(F)cc2)c2ncccc21 | > 25 µM | > 25 µM |

| SMILES | TGI | GI50 |
| --- | --- | --- |
| COC1/C(=C\c2ccccc2I)c2ccccc2N1C(C)=O (stereo not given) | 47.1 µM |  |
| COc1cc(OC)c(/C=C/c2cc[n+](C)c3ccccc23)c(OC)c1 | 18.3 µM | 3.18 µM |
| O=C(OCC1OC(n2cc(C(F)(F)F)c(=O)[nH]c2=O)CC1OC(=O)c1ccc([N+](=O)[O-])cc1)c1ccc([N+](=O)[O-])cc1 (stereo not given) | > 100 µM | > 100 µM |
| O=C1C2c3[nH]c4ccccc4c3C3CCCCC3C2C(=O)N1c1ccccc1 (stereo not given) | > 100 µM |  |
| O=C(Nc1nnc(-c2ccc(Cl)cc2)o1)C(SC(=S)N1CCCCC1)c1ccccc1 (stereo not given) | > 100 µM |  |
| COC1=CC(=O)c2c(cc(COP(N)(=O)N(CCBr)CCBr)n2C)C1=O (stereo not given) | 4.73 µM |  |
| Cc1cc(=O)[nH]c(S(=O)(=O)NC(=S)Nc2ccc(Cl)cc2)n1 | > 100 µM |  |
| O=C1C=C(Nc2ccc(Br)cc2)c2ccccc2C1=O | 27.4 µM |  |
| CCC1=CCN(c2ccc(C)cc2)OC1c1ccc(OC)cc1 (stereo not given) | > 100 µM |  |
| CC(=O)Nc1ccc(-c2nnc(SCC(=O)Nc3ccc(Cl)cc3Cl)o2)cc1 | > 100 µM |  |
| O=C(CN(/C=C/C(=O)C(F)(F)F)c1ccc(Cl)cc1)c1ccc(F)cc1 | 46.5 µM | 13.1 µM |
| O=C(c1ccccc1)c1ccc2cccc(OC3OC(CO)C(O)C(O)C3O)c2n1 (stereo not given) | > 100 µM |  |
| Nc1ncnc2c1ncn2C1CC(O)C(CO)O1 (stereo not given) | > 100 µM |  |
| COc1cc(-c2nc3ccc(N4CCN(C)CC4)cc3[nH]2)c(OC)c2[nH]c(CO)nc12 | > 100 µM |  |
| CC(=O)/C=c1\[nH]/c(=C\C=C\c2ccccc2)c(=O)n1/C=C1\C(=O)Oc2ccccc2C1=O | > 100 µM |  |
| NCCCCCn1c2c(c3ccccc3c1=O)C(=O)c1ccccc1-2 | 6.58 µM | 1.55 µM |
| COc1cccc2c1O/C(=C\c1ncc([N+](=O)[O-])n1C)C2=O | 17.4 µM | 3.37 µM |
| COc1ccc(C2SC(N)=Nc3c2c(C)nn3C(=O)Cc2ccccc2)cc1 (stereo not given) | > 100 µM |  |
| CCn1c(=O)c2cn[nH]c2n(C)c1=O | > 100 µM |  |
| NC(Cc1ccccc1)P(=O)(O)O (stereo not given) | > 100 µM |  |
| O=C(NC(=S)Nc1ccc2c(c1)Sc1ccccc1O2)c1ccccc1 | > 100 µM |  |
| CC12CCC([C@H](Nc3cc(C(F)(F)F)cc(C(F)(F)F)c3)C1=O)C2(C)C (stereo not given in full) | > 100 µM |  |
| Cc1ccccc1NC(=O)C(=O)c1c(O)c2ccc(O)cc2oc1=O | > 100 µM |  |
